We go through 73 sequences from the BET-seq Pho4 binding data (Le et al. 2018).

The list shows a part of the results. The energies were worked out here from pooled read counts, against the library average; single values are noisy.

The assay concerns the target T1, Pho4 (S. cerevisiae) (UniProt P07270).
T1 sequence: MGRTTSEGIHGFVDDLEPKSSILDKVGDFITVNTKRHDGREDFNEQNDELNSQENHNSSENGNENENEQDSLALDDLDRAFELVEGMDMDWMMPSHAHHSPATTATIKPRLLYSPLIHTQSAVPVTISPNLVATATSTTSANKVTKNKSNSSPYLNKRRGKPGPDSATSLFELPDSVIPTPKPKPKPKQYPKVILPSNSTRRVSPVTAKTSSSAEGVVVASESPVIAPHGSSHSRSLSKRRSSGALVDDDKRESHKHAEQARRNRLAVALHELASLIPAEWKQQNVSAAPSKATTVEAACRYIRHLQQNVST
Description: relative binding free energy (BET-seq); higher = weaker binding. The note with it: reference: library average.
GGGGCCACGTGGATAT: the “relative binding free energy” value was found to be 0.02 kcal/mol. CGGGCCACGTGGGTAG: the “relative binding free energy” value was -0.31 kcal/mol.

As to GGCGTCACGTGAGTGG, the “relative binding free energy” value was 0.22 kcal/mol. Under TAATACACGTGATAGT stands 0.13 kcal/mol; under TCCAGCACGTGGGTGG, -0.25 kcal/mol; under TATTGCACGTGGATAG, -0.02 kcal/mol.

CTAGTCACGTGGAGTG: the “relative binding free energy” value stood at 0.02 kcal/mol. Under TGGTCCACGTGAGTTG stands 0.22 kcal/mol; under GTAGGCACGTGCTGTG, -0.23 kcal/mol. With TGGTGCACGTGTGAGT, the “relative binding free energy” value is 0.09 kcal/mol. Under TTTTGCACGTGGTTTA stands -0.04 kcal/mol. Under TGGTACACGTGTGTTA stands 0.03 kcal/mol; under TGGGTCACGTGCCGTG, 0.09 kcal/mol; under GAATACACGTGGGATT, 0.17 kcal/mol. Under GAGGGCACGTGCGCAT stands -0.03 kcal/mol. Regarding TGTTGCACGTGACGGT, the “relative binding free energy” value worked out at 0.12 kcal/mol. Under TGCGACACGTGTATAG stands 0.15 kcal/mol. Under TTTGTCACGTGTTGCC stands 0.16 kcal/mol; under AGCGGCACGTGTCTGT, -0.07 kcal/mol; under TGGTTCACGTGGCGTA, 0.21 kcal/mol. Under GCGATCACGTGGGGAT stands 0 kcal/mol; under GGCGCCACGTGGGGTG, -0.2 kcal/mol.

In the case of GGTGGCACGTGCCTTG, the “relative binding free energy” value was -0.12 kcal/mol. Under AGGGTCACGTGTAGCA stands 0.06 kcal/mol; under GAGGTCACGTGGCAGT, -0.02 kcal/mol.

TGTTCCACGTGGTTGA: the “relative binding free energy” value is 0.07 kcal/mol. With TGACTCACGTGATTTG, the “relative binding free energy” value was determined as 0.27 kcal/mol. Under GGGCTCACGTGGTGTG stands 0.18 kcal/mol; under GGATACACGTGGGGAC, 0.14 kcal/mol. Turning to GGTGACACGTGCATGG, the “relative binding free energy” value is -0.06 kcal/mol.

Consider GGTATCACGTGTAGTG, for which the “relative binding free energy” value came out at 0.07 kcal/mol. Under TAATTCACGTGGGGGC stands 0.05 kcal/mol. Under GTAGGCACGTGGGCGC stands -0.13 kcal/mol; under TGAACCACGTGGTAGG, -0.05 kcal/mol. Under ATGCCCACGTGGGGTT stands -0.15 kcal/mol. For ATTGCCACGTGATATG, the “relative binding free energy” value was found to be 0.03 kcal/mol. Under CGGCGCACGTGGGGGA stands -0.29 kcal/mol. Regarding CTGTACACGTGTAGTG, the “relative binding free energy” value was -0.1 kcal/mol. Under TTAGGCACGTGTGTCT stands -0.07 kcal/mol; under GGTTTCACGTGGGGAA, 0.27 kcal/mol. Under TGTGTCACGTGGAAAC stands 0.11 kcal/mol.

As to GAGCGCACGTGTTGTA, the “relative binding free energy” value was -0.08 kcal/mol.

GGAAACACGTGTTTAG: the “relative binding free energy” value is 0.12 kcal/mol. Under TATATCACGTGTTATG stands 0.08 kcal/mol. Under GTGGGCACGTGCTCGT stands -0.13 kcal/mol. Under TCATGCACGTGTAGGT stands 0.01 kcal/mol; under ATGCTCACGTGGGGTA, 0 kcal/mol. With TGTGGCACGTGAGTGG, the “relative binding free energy” value is 0.18 kcal/mol.

For ATTTTCACGTGGATTG, the “relative binding free energy” value was 0.15 kcal/mol. Under ATTAGCACGTGTTGCA stands -0.19 kcal/mol; under TTTATCACGTGTCAGG, 0.19 kcal/mol. For the sequence TTTGTCACGTGACTTG, the “relative binding free energy” value was found to be 0.12 kcal/mol. Under CAAAGCACGTGGAGGT stands -0.14 kcal/mol; under TACTGCACGTGGTGAG, -0.1 kcal/mol.

Take CGTTTCACGTGGAGCG: the “relative binding free energy” value was 0.4 kcal/mol. Under TGTTCCACGTGTATAG stands 0.06 kcal/mol.

Consider GCGGGCACGTGTCGTT, for which the “relative binding free energy” value came out at 0.01 kcal/mol.

Consider CTTTGCACGTGAAGAG, for which the “relative binding free energy” value was determined as 0.2 kcal/mol. Under AGATTCACGTGACGGT stands 0.28 kcal/mol; under TTACGCACGTGGAGGT, -0.21 kcal/mol. Under ATGAACACGTGAGCGG stands 0.26 kcal/mol; under GTTCGCACGTGTTGGC, 0.17 kcal/mol. Regarding GGACTCACGTGTAGTG, the “relative binding free energy” value was 0.14 kcal/mol. Take ATAAACACGTGAGGTT: the “relative binding free energy” value is 0.24 kcal/mol. Under GTGTGCACGTGTCGCG stands -0.07 kcal/mol; under TTCATCACGTGGCGGG, 0.08 kcal/mol; under CGTATCACGTGTATTG, 0.03 kcal/mol.

Consider ATTTGCACGTGCAGTT, for which the “relative binding free energy” value was -0.1 kcal/mol. Consider TGTTACACGTGCGATG, for which the “relative binding free energy” value is 0.1 kcal/mol. Under GGGAGCACGTGTAGCG stands -0.12 kcal/mol; under TTGAGCACGTGTTGTT, 0.03 kcal/mol.

As for AATGGCACGTGTGTAT, the “relative binding free energy” value was -0.13 kcal/mol. Under TTGGGCACGTGTGATC stands 0.06 kcal/mol.
